Laboratory results as given in PubChem BioAssay AID1347165 (National Center for Advancing Translational Sciences (NCATS), 2019).
About 5,700 (2.6%) of roughly 220,000 compounds were called active. Inconclusive means that the source gave no clear call. Such entries were picked first, then a sample of the others. The call rests on the fitted dose curve; in most records, active means well fitted inhibition curve with a large enough effect; inconclusive means small, poorly fitted or top-dose-only effect; inactive means no such curve, though single readings can be large or run the other way. Potencies beside an inconclusive call are fits to weak or partial responses and may not hold up.

Biological target: Lysine-specific demethylase 5B (Homo sapiens) (UniProt Q9UGL1)
Test: Primary screen for KDM5B Histone Demethylases FDH-coupled qHTS; further: nearly all actives have a fitted effect of over 70% in size; on activity change, negative = inhibition: 0% is about no effect
Details: FDH-coupled NADH fluorescence (FDH is formaldehyde dehydrogenase); activity change, negative = inhibition: at 57.7 µM (top of the series) unless noted
Method in brief: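 qHTS format, multiple compound concentrations. Buffer 50 mM HEPES pH 7.5/0.01% Tween-20; 200 nM KDM5BΔAP final; 10 min compound preincubation; substrate-mix levels 12.5 µM peptide, 25 µM α-KG, 0.25 mM NAD⁺; 30 min RT; ΔRFU.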
Potency means the concentration at half of the fitted maximal effect; tags describe the fitted curve by direction and shape.

UniProt Q9UGL1, sequence (Q9UGL1 whole entry, looked up): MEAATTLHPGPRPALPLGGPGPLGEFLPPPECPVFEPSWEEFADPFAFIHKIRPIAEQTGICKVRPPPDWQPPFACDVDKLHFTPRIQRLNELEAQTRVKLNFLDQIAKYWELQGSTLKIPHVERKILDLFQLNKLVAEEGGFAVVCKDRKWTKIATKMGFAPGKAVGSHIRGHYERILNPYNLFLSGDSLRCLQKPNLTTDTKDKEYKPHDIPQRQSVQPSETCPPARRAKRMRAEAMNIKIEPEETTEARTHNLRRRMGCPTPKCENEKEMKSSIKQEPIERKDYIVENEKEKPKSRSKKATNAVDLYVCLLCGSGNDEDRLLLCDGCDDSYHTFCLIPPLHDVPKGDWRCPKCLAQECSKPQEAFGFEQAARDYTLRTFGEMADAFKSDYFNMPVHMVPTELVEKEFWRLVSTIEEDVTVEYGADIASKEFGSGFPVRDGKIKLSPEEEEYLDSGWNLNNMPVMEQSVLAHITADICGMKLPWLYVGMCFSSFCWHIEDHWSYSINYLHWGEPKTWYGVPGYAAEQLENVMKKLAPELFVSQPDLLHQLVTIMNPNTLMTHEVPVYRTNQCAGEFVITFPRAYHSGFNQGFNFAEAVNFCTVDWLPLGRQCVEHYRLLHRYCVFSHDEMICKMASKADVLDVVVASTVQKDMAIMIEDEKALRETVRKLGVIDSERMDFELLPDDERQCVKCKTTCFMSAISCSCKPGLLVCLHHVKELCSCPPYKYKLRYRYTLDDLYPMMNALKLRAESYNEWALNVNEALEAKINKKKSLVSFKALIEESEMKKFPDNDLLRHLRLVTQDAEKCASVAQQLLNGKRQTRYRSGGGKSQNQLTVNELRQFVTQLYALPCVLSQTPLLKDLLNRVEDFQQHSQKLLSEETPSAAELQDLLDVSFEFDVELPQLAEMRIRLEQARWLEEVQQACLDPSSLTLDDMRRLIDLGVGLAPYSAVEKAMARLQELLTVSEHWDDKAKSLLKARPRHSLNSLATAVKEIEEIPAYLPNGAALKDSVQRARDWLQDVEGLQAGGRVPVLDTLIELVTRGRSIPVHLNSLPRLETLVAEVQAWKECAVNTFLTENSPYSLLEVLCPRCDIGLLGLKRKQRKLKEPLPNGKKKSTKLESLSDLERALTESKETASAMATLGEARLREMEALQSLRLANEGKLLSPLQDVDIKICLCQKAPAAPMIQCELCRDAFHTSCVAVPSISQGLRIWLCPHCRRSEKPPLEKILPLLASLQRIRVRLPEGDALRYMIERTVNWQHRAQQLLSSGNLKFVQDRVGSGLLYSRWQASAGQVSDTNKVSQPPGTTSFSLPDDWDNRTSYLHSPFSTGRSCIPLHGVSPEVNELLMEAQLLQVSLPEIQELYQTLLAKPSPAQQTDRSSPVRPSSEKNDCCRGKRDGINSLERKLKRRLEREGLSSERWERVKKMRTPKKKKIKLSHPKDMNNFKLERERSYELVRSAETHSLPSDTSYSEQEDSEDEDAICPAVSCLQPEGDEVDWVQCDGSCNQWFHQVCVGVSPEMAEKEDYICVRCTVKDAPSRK

Question: `Cc1noc(C)c1CC(=O)N1CCCC(c2nn(C)c(=O)n2-c2ccccc2)C1` (stereo not given) was tested. Which Potency did it give?
Answer: inactive

Question: `COc1ccc2[nH]c(C[C@@H]3C[C@@H](C(C)C)[C@H](CNC(=O)c4cnccn4)C=C3C)nc2n1` was tested. Which Potency did it give?
Answer: inconclusive: 25.1 µM [inhibitor, partial curve, poor fit]

Question: For `Clc1cc(Cl)cc(NC2CNC2)c1`, which Potency is on record?
Answer: inconclusive: 50.1 µM [inhibitor, full curve, poor fit]

Question: How did the Potency turn out when `COc1cccc(-c2nc3cnccn3c2NCCC(=O)NC2CCCCCC2)c1` was run?
Answer: active: 28.2 µM

Question: With `Cc1noc(C)c1-c1cc2cc(CO)oc2c(NCCN2CCOCC2)n1` as the molecule, how does the Potency read?
Answer: inconclusive: 28.2 µM [inhibitor, partial curve, poor fit]

Question: With `COc1ccc(-c2ccc3nc(-c4ccc(C)c(F)c4)oc3c2)c(OC)c1OC` as the molecule, how does the Potency read?
Answer: inactive

Question: How did the Potency turn out when `O=S(=O)(NC[C@H]1O[C@@H](CO)[C@@H](O)[C@H]1N1CCN(c2ncccn2)CC1)c1ccccc1` was run?
Answer: inactive

Question: For `Cc1ccc2cc3c(=O)n(C)cc(C=O)c3nc2c1`, which Potency is on record?
Answer: inconclusive: 25.1 µM [inhibitor, single point]

Question: With `O=C(Nc1ccc(S(=O)(=O)Nc2cnc3ccccc3n2)cc1)c1ccncc1` as the molecule, how does the Potency read?
Answer: inactive

Question: For `COc1ccc(C2CC(c3ccsc3)=NN2C(=O)CCC(=O)O)cc1OC` (stereo not given), which Potency is on record?
Answer: inactive

Question: Which Potency does the source give for `Cn1ccnc1CNC(=O)C[C@@H]1C[C@H]2O[C@H](CNC3CCNCC3)[C@@H](O)[C@H]2O1` here?
Answer: inactive

Question: Which Potency does the source give for `CCCCCCc1ccc(Nc2ccccc2)cc1O` here?
Answer: inconclusive: 22.4 µM [inhibitor, partial curve, poor fit]

Question: For `CC(C)CCNC(=O)c1cc2ccccc2oc1=O`, which Potency is on record?
Answer: inactive

Question: How did the Potency turn out when `Cn1cc(-c2ccc(O)c(F)c2)c2nc(COc3ccc(Cl)cc3)cn2c1=O` was run?
Answer: active: 20 µM

Question: Which Potency does the source give for `N[C@@H](Cc1cnc[nH]1)C(=O)N1CCC(c2cc(N3CCCC3)ncn2)CC1` here?
Answer: inconclusive: 0.708 µM [inhibitor, full curve, poor fit]

Question: `Cc1ccc(C(=O)n2nc(NCc3ccccc3)nc2NCc2ccccc2)cc1` was tested. Which Potency did it give?
Answer: inconclusive: 39.8 µM [inhibitor, single point]

Question: With `COc1ccc(-c2ccccc2)cc1N1C(=O)[C@@H]2C[C@H]1CN2Cc1nc[nH]c1C` as the molecule, how does the Potency read?
Answer: inactive

Question: `COCCCN1C(=O)CC[C@H]2CN(C(=O)Cn3cccnc3=O)CC[C@H]21` was tested. Which Potency did it give?
Answer: inconclusive: 17.8 µM [inhibitor, partial curve]

Question: For `Cn1c(SCC(=O)Nc2ccc(Br)cc2)nnc1-c1ccccc1F`, which Potency is on record?
Answer: inactive

Question: How did the Potency turn out when `Cc1ccc(-c2cc(=O)[nH]c(NCc3ccccc3)n2)cc1` was run?
Answer: inconclusive: 31.6 µM [inhibitor, single point]

Question: `O=[S+]([O-])(c1cccc(C(F)(F)F)c1)N1CC(CNc2cccnc2)C2(CN(c3ccccc3)C2)C1` (stereo not given) was tested. Which Potency did it give?
Answer: inconclusive: 35.5 µM [inhibitor, single point]

Question: `CCOC(=O)c1cc(-c2ccccc2)n(-c2cccc(C(=O)Nc3cccc(SC)c3)c2)c1C` was tested. Which Potency did it give?
Answer: inconclusive: 1.12 µM [inhibitor, full curve, poor fit]

Question: With `Cc1ccc2c(=O)c(-c3nc(-c4ccccc4C)no3)cn(CC(=O)NCc3cccs3)c2n1` as the molecule, how does the Potency read?
Answer: inconclusive: 39.8 µM [inhibitor, single point]

Question: `CC(C)(C)c1ccc(C(=O)Nc2nc3c(s2)C[C@@H]2[C@](C)(CO)[C@H](O)CC[C@@]2(C)[C@@H]3CC(=O)NC2CC2)cc1` was tested. Which Potency did it give?
Answer: inconclusive: 31.6 µM [inhibitor, single point]

Question: How did the Potency turn out when `Cc1cc(=O)oc2cc(NC(=O)c3cccc(S(C)(=O)=O)c3)ccc12` was run?
Answer: inconclusive: 25.1 µM [inhibitor, partial curve, poor fit]

Question: `CC1=C(C(=O)NC23CC4CC(CC(C4)C2)C3)C(c2cccnc2)NC(=O)N1` (stereo not given) was tested. Which Potency did it give?
Answer: inactive

Question: How did the Potency turn out when `Cc1ccc(/C=C(/C#N)C(=O)NC2CCCCC2)cc1C` was run?
Answer: inactive

Question: Which Potency does the source give for `Cc1ccc(CNc2ccc3c(c2)ncn3C(C)C)cc1` here?
Answer: inconclusive: 39.8 µM [inhibitor, single point]

Question: Which Potency does the source give for `CC1(C(=O)Nc2ccccc2F)COCc2cnc(Nc3ccccc3)nc21` (stereo not given) here?
Answer: inconclusive: 56.2 µM [inhibitor, single point]

Question: `Cc1cc2c(cc1S(=O)(=O)NCc1ccc(F)cc1)n(C)c(=O)c(=O)n2C` was tested. Which Potency did it give?
Answer: inconclusive: 8.91 µM [inhibitor, partial curve, poor fit]

Question: Which Potency does the source give for `COc1cccc(CNC(=O)c2ccc(-c3ccc(N4CCSCC4)nc3)cc2)c1` here?
Answer: inactive

Question: `Cc1n[nH]c(C)c1CNc1cc(C2CC(O)C2)ncn1` (stereo not given) was tested. Which Potency did it give?
Answer: inconclusive: 25.1 µM [inhibitor, single point]

Question: Which Potency does the source give for `COc1ccccc1OCc1cc(C(=O)N2CCCN3CCC[C@H]3C2)n[nH]1` here?
Answer: inconclusive: 17.8 µM [inhibitor, partial curve, poor fit]

Question: Which Potency does the source give for `CCc1ccc(-n2nc(-c3nc4ccccc4s3)c(N)c2C(=O)OC)cc1` here?
Answer: inactive

Question: With `CN(Cc1ccc(-n2cccn2)cc1)CC1CCN(CCc2ccc(F)cc2)CC1` as the molecule, how does the Potency read?
Answer: inconclusive: 6.31 µM [inhibitor, single point]

Question: Which Potency does the source give for `CC(C)OC(=O)c1c(-c2ccc(Cl)c(Cl)c2)csc1NC(=O)CCC(=O)O` here?
Answer: inconclusive: 35.5 µM [inhibitor, single point]

Question: For `CCN(CC)C(=O)C[C@@H]1CCNC[C@@H]1Cc1cc(CC2CCCCC2)on1`, which Potency is on record?
Answer: inactive

Question: How did the Potency turn out when `Cc1ccc(-c2nnc(SCc3cc(-c4ccco4)on3)o2)cc1` was run?
Answer: inactive

Question: For `CCc1nc2c(c(-c3ccc(OC)cc3)n1)CCN(Cc1ccc(C(F)(F)F)cc1)CC2`, which Potency is on record?
Answer: inconclusive: 50.1 µM [inhibitor, partial curve, poor fit]

Question: Which Potency does the source give for `N#Cc1ccc(OCCOC(=O)COc2ccc(Cl)cc2Br)cc1` here?
Answer: inactive

Question: With `COCc1nc2nc(-c3ccccc3)c(-c3ccccc3OC)cc2n1C` as the molecule, how does the Potency read?
Answer: inconclusive: 39.8 µM [inhibitor, partial curve, poor fit]

Question: With `C=CCNC(=O)N[C@H]1CO[C@H]2[C@@H]1OC[C@@H]2Nc1nccc(-c2ccc(OC)cc2)n1` as the molecule, how does the Potency read?
Answer: active: 35.5 µM

Question: For `CCCOc1cc(OCCC)cc(C(=O)Nc2cccc(-c3nc4ncccc4o3)c2)c1`, which Potency is on record?
Answer: inactive

Question: For `CCN1c2ccccc2-c2nc(SCC(=O)Nc3cccc(C)c3C)ncc2S1(=O)=O`, which Potency is on record?
Answer: inconclusive: 3.55 µM [inhibitor, partial curve, poor fit]

Question: `CC(=O)N1CCN(C(C(=O)O)c2cn(Cc3ccccc3)c3cc(C(=O)O)ccc23)CC1` (stereo not given) was tested. Which Potency did it give?
Answer: inconclusive: 28.2 µM [inhibitor, single point]

Question: Which Potency does the source give for `CC(C)NC(=O)c1ccccc1NC(=O)C(Cl)Cl` here?
Answer: inactive

Question: `CC(C)(C)n1nnnc1SCC(=O)N1N=C(c2cc3ccccc3o2)CC1c1ccco1` (stereo not given) was tested. Which Potency did it give?
Answer: inconclusive: 25.1 µM [inhibitor, single point]

Question: For `COc1cc(C)ccc1OCCSc1nc2ccc(NC(=O)c3ccco3)cc2s1`, which Potency is on record?
Answer: inconclusive: 39.8 µM [inhibitor, partial curve, poor fit]

Question: `Cc1c([N+](=O)[O-])c(C(=O)Sc2ccc(Br)cc2)nn1C` was tested. Which Potency did it give?
Answer: inconclusive: 12.6 µM [inhibitor, partial curve, poor fit]

Question: For `CCCCCCn1nnc2sc(-c3ccccc3)cc2c1=O`, which Potency is on record?
Answer: inconclusive: 31.6 µM [inhibitor, partial curve, poor fit]

Question: `CN(C)c1cc(CNC(=O)Nc2nnc(C3CC3)s2)ccn1` was tested. Which Potency did it give?
Answer: inconclusive: 31.6 µM [inhibitor, partial curve, poor fit]

Question: Which Potency does the source give for `CC1(C(=O)NCCCn2ccnc2)CCCc2cnc(Nc3ccccc3)nc21` (stereo not given) here?
Answer: inactive

Question: How did the Potency turn out when `O=C1NCc2ccccc2CC12CCCN2Cc1ccc(O)cc1O` (stereo not given) was run?
Answer: active: 89.1 µM

Question: `Cc1csc2nc(COC(=O)c3ccccc3NC(=O)c3cccc(Br)c3)cc(=O)n12` was tested. Which Potency did it give?
Answer: inconclusive: 25.1 µM [inhibitor, single point]

Question: How did the Potency turn out when `CCCCC(=O)N/N=C/c1ccc(C)cc1` was run?
Answer: inactive

Question: How did the Potency turn out when `O=C(CCCn1c2ccccc2c(=O)c2ccccc21)Nc1cccc(Cl)c1` was run?
Answer: inconclusive: 25.1 µM [inhibitor, partial curve, poor fit]

Question: With `O=C(N[C@H]1CCOC[C@H]1C1CCOCC1)c1ccc(CN2CCCC2)o1` as the molecule, how does the Potency read?
Answer: inconclusive: 35.5 µM [inhibitor, single point]

Question: Which Potency does the source give for `O=C(Nc1ccc(Cl)cc1Cl)c1ccc2cncn2c1` here?
Answer: active: 28.2 µM

Question: Which Potency does the source give for `COc1cccc(CNC(=O)c2cc3c(-c4ccccc4F)nn(C)c3s2)c1` here?
Answer: inconclusive: 25.1 µM [inhibitor, partial curve, poor fit]

Question: How did the Potency turn out when `Cc1noc(C)c1-c1nccc2c(=O)cc(N3CCOCC3)oc12` was run?
Answer: active: 39.8 µM

Question: For `Cc1noc(-c2ccc(-c3noc(-c4ccc(F)cc4)n3)cc2)n1`, which activity change, negative = inhibition is on record?
Answer: inconclusive: -31.9% [inhibitor] [at 11.5 µM]

Question: With `COc1nccnc1NC1CCN(C(=O)NC2CCCCC2)CC1` as the molecule, how does the Potency read?
Answer: active: 31.6 µM

Question: How did the Potency turn out when `Cc1c(-c2ccc(Cl)cc2)c(=O)oc2ccc(OS(C)(=O)=O)cc12` was run?
Answer: inactive

Question: How did the Potency turn out when `COCCNc1oc(-c2ccc(S(=O)(=O)N3CCCCC3)cc2)nc1C#N` was run?
Answer: inactive

Question: `CC1CCCN(CCCNC(=O)c2cc(Sc3ccc(F)cc3)nc3ccccc23)C1` (stereo not given) was tested. Which Potency did it give?
Answer: inconclusive: 15.8 µM [inhibitor, partial curve, poor fit]

Question: For `CN(C)C[C@@H]1CN(c2ccccn2)C[C@H]1NC(=O)c1ccsc1`, which Potency is on record?
Answer: active: 22.4 µM

Question: How did the Potency turn out when `N#CC1=C(N)OC2=C(C(=O)CCC2)C1c1ccc(C#N)cc1` (stereo not given) was run?
Answer: inactive

Question: How did the activity change, negative = inhibition turn out when `COc1cc(OC)cc(-c2cc3nc(C)c(CCC(=O)NCCc4cccc(C)c4)c(C)n3n2)c1` was run?
Answer: inconclusive: -33.5% [inhibitor]

Question: `CS(=O)(=O)c1ccc(CN2CCN3C(=O)N(Cc4ccccn4)C[C@H]3C2)cc1` was tested. Which Potency did it give?
Answer: active: 28.2 µM

Question: For `Cc1ccc(C)c2c(C)c(C(=O)N3CCCC(O)(CN4CCCC4)C3)[nH]c12` (stereo not given), which Potency is on record?
Answer: inconclusive: 7.94 µM [inhibitor, partial curve]
